Data as given in the supplement of paper PMC7826260.
Some of the results follow. Cleavage of a single-stranded DNA pool by Rep nickase domains was read by sequencing (1 h at 37 °C, 3 µM enzyme); the outer parts of the 90-letter strands are left off. Numbers give uncut DNA relative to the enzyme-free pool, as log2; uncut sequences lie near 0, cut ones below; no hit call is given. Shares of all reads are compared; values above 0 arise when much of the pool is cut.

These sequences were tested on T1, Rep nickase domain of tomato golden mosaic virus (assay: uncleaved DNA left, log2 of reads against the no-enzyme library (log2 ratio); higher = less cleavage (more negative = more Rep cleavage of the k-mer); sequences stand for … in CTCGTCCG…ACCGGAGA).
T1 sequence (residues 1-124 of Rep, tag left off): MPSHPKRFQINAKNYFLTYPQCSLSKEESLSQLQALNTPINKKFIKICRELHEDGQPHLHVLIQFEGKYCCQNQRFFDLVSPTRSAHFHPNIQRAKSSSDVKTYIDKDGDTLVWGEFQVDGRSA
Experimental: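 A pool of 90-nt single-stranded DNAs with seven random bases just before the constant AC of the nick site (name = the seven bases) was cut by 3 µM recombinant His6-SUMO-tagged Rep nickase domain (300 nM DNA, 50 mM HEPES pH 8.0, 50 mM NaCl, 1 mM MnCl2, 1 h, 37 °C, three replicates). Uncut DNA was amplified and sequenced.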

Sequence | uncleaved DNA left (log2)
AAGCTAT | 0.0847
CTAGCGC | -0.245
CCAATGA | -0.155
TACCCTA | -0.184
CATGGCT | 0.0327
ATGGGAA | -0.11
CAATCTA | -0.309
AGGGCCG | 0.0139
TAGTTAG | 0.0151
TCATAGT | -0.0793
AGCTTAG | 0.0648
GCCCTGC | 0.0902
TAAGTGA | -0.0284
TCTAAGC | -0.0171
TCATGGA | -0.00115
GTTGACT | -0.0341
TATTACA | -2.25
GACGTAT | 0.0513
CGTCAGA | 0.0702
CAACGAA | 0.00473

Sequence | uncleaved DNA left (log2)
CGACCAA | -0.0991
AAAAAAC | 0.072
AGGGATT | 0.195
AGTGTTA | -0.0819
TATAATC | 0.0295
GACCACT | -0.0522
ACACTGG | -0.088
GTAGGAC | 0.0453
TGCCAGG | 0.0537
AACGCCC | 0.0212
TTCTGAT | 0.0659
CGTCATT | -0.0846
ACCCATA | 0.137
CCATCCA | 0.0709
GTGGTAA | 0.125
GTAACGA | 0.119
GGGAGTA | -0.00498
ACAGCGC | -0.141
GTTTAAT | 0.0551
CTGTATC | -0.125
